{
  "source": "the supplement of paper PMC8728848",
  "binders": {"B1": {"name": "PNA (Arachis hypogaea), P02872 (protein)", "chain": "MKPFCVFLTFFLLLAASSKKVDSAETVSFNFNSFSEGNPAINFQGDVTVLSNGNIQLTNLNKVNSVGRVLYAMPVRIWSSATGNVASFLTSFSFEMKDIKDYDPADGIIFFIAPEDTQIPAGSIGGGTLGVSDTKGAGHFVGVEFDTYSNSEYNDPPTDHVGIDVNSVDSVKTVPWNSVSGAVVKVTVIYDSSTKTLSVAVTNDNGDITTIAQVVDLKAKLPERVKFGFSASGSLGGRQIHLIRSWSFTSTLITTTRRSIDNNEKKIMNMASA"}},
  "assay_in_all_cases": "glycan array binding signal (z-score within array); higher = stronger binding",
  "conditions_in_all_cases": "glycan notation: IUPAC condensed, linker removed",
  "key": {"[1]": {"target": "Neu5Ac(a2-6)Gal(b1-4)GlcNAc(b1-3)Gal(b1-4)GlcNAc(b1-3)[Neu5Ac(a2-6)Gal(b1-4)GlcNAc(b1-3)Gal(b1-4)GlcNAc(b1-6)]GalNAc", "method_in_brief": "(§1)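 The binding signal is a Z-score computed within each array. Data were drawn from 3228 arrays in the Consortium for Functional Glycomics database, restricted to those with a known protein sequence. Scores were averaged over arrays of the same protein sequence at different concentrations or buffers, and over linkers, and negative values can be taken as non-binding.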"}, "[2]": {"target": "Neu5Ac(a2-6)Gal(b1-4)GlcNAc(b1-3)Gal(b1-4)GlcNAc(b1-6)[Gal(b1-3)]GalNAc", "method_in_brief": "as §1"}, "[3]": {"target": "Neu5Ac(a2-6)Gal(b1-4)GlcNAc(b1-3)Gal(b1-4)[Fuc(a1-3)]Glc", "method_in_brief": "as §1"}, "[4]": {"target": "Neu5Ac(a2-6)Gal(b1-4)GlcNAc(b1-3)Gal(b1-4)[Fuc(a1-3)]GlcNAc(b1-3)Gal(b1-4)[Fuc(a1-3)]GlcNAc", "method_in_brief": "as §1"}, "[5]": {"target": "Neu5Ac(a2-6)Gal(b1-4)GlcNAc(b1-3)GalNAc", "method_in_brief": "as §1"}, "[6]": {"target": "Neu5Ac(a2-6)Gal(b1-4)GlcNAc(b1-3)[Neu5Ac(a2-6)Gal(b1-4)GlcNAc(b1-6)]Gal(b1-4)Glc", "method_in_brief": "as §1"}, "[7]": {"target": "Neu5Ac(a2-6)Gal(b1-4)GlcNAc(b1-3)[Neu5Ac(a2-6)Gal(b1-4)GlcNAc(b1-6)]GalNAc", "method_in_brief": "as §1"}, "[8]": {"target": "Neu5Ac(a2-6)Gal(b1-4)GlcNAc(b1-6)GalNAc", "method_in_brief": "as §1"}, "[9]": {"target": "Neu5Ac(a2-6)Gal(b1-4)GlcNAc(b1-6)[Gal(b1-3)GlcNAc(b1-3)]Gal(b1-4)Glc", "method_in_brief": "as §1"}, "[10]": {"target": "Neu5Ac(a2-6)Gal(b1-4)GlcNAc(b1-6)[Gal(b1-3)]GalNAc", "method_in_brief": "as §1"}, "[11]": {"target": "Neu5Ac(a2-6)Gal(b1-4)GlcNAc6S", "method_in_brief": "as §1"}, "[12]": {"target": "Neu5Ac(a2-6)Gal(b1-4)[Fuc(a1-3)]GlcNAc(b1-3)Gal(b1-4)Glc", "method_in_brief": "as §1"}, "[13]": {"target": "Neu5Ac(a2-6)Gal(b1-6)GalNAc(b1-4)Gal(b1-4)Glc", "method_in_brief": "as §1"}, "[14]": {"target": "Neu5Ac(a2-6)Gal6S", "method_in_brief": "as §1"}, "[15]": {"target": "Neu5Ac(a2-6)Gal6S(b1-4)Glc", "method_in_brief": "as §1"}, "[16]": {"target": "Neu5Ac(a2-6)Gal6S(b1-4)Glc4S", "method_in_brief": "as §1"}, "[17]": {"target": "Neu5Ac(a2-6)GalNAc", "method_in_brief": "as §1"}, "[18]": {"target": "Neu5Ac(a2-6)GalNAc(b1-4)GlcNAc", "method_in_brief": "as §1"}, "[19]": {"target": "Neu5Ac(a2-6)GalNAc(b1-4)GlcNAc6S", "method_in_brief": "as §1"}, "[20]": {"target": "Neu5Ac(a2-6)Glc", "method_in_brief": "as §1"}, "[21]": {"target": "Neu5Ac(a2-6)Glc6S", "method_in_brief": "as §1"}, "[22]": {"target": "Neu5Ac(a2-6)GlcNAc", "method_in_brief": "as §1"}, "[23]": {"target": "Neu5Ac(a2-6)GlcNAc(b1-4)GlcNAc", "method_in_brief": "as §1"}, "[24]": {"target": "Neu5Ac(a2-6)GlcNAc(b1-4)GlcNAc(b1-4)GlcNAc", "method_in_brief": "as §1"}, "[25]": {"target": "Neu5Ac(a2-6)GlcNAc6S", "method_in_brief": "as §1"}, "[26]": {"target": "Neu5Ac(a2-8)Neu5Ac", "method_in_brief": "as §1"}, "[27]": {"target": "Neu5Ac(a2-8)Neu5Ac(a2-3)Gal", "method_in_brief": "as §1"}, "[28]": {"target": "Neu5Ac(a2-8)Neu5Ac(a2-3)Gal(b1-3)GalNAc(b1-4)[Neu5Ac(a2-3)]Gal(b1-4)Glc", "method_in_brief": "as §1"}, "[29]": {"target": "Neu5Ac(a2-8)Neu5Ac(a2-3)Gal(b1-3)GalNAc(b1-4)[Neu5Ac(a2-8)Neu5Ac(a2-3)]Gal(b1-4)Glc", "method_in_brief": "as §1"}, "[30]": {"target": "Neu5Ac(a2-8)Neu5Ac(a2-3)Gal(b1-4)Glc", "method_in_brief": "as §1"}, "[31]": {"target": "Neu5Ac(a2-8)Neu5Ac(a2-3)Gal(b1-4)GlcNAc", "method_in_brief": "as §1"}, "[32]": {"target": "Neu5Ac(a2-8)Neu5Ac(a2-3)[Gal(b1-3)GalNAc(b1-4)]Gal(b1-4)Glc", "method_in_brief": "as §1"}, "[33]": {"target": "Neu5Ac(a2-8)Neu5Ac(a2-3)[GalNAc(b1-4)]Gal(b1-4)Glc", "method_in_brief": "as §1"}, "[34]": {"target": "Neu5Ac(a2-8)Neu5Ac(a2-6)Gal", "method_in_brief": "as §1"}, "[35]": {"target": "Neu5Ac(a2-8)Neu5Ac(a2-6)Glc", "method_in_brief": "as §1"}, "[36]": {"target": "Neu5Ac(a2-8)Neu5Ac(a2-8)Neu5Ac", "method_in_brief": "as §1"}, "[37]": {"target": "Neu5Ac(a2-8)Neu5Ac(a2-8)Neu5Ac(a2-3)Gal(b1-4)Glc", "method_in_brief": "as §1"}, "[38]": {"target": "Neu5Ac(a2-8)Neu5Ac(a2-8)Neu5Ac(a2-3)[Gal(b1-3)GalNAc(b1-4)]Gal(b1-4)Glc", "method_in_brief": "as §1"}, "[39]": {"target": "Neu5Ac(a2-8)Neu5Ac(a2-8)Neu5Ac(a2-3)[GalNAc(b1-4)]Gal(b1-4)Glc", "method_in_brief": "as §1"}, "[40]": {"target": "Neu5Ac(a2-8)Neu5Ac(a2-8)Neu5Ac(a2-6)Gal", "method_in_brief": "as §1"}, "[41]": {"target": "Neu5Ac(a2-8)Neu5Ac(a2-8)Neu5Ac(a2-8)Neu5Ac", "method_in_brief": "as §1"}, "[42]": {"target": "Neu5Ac(a2-8)Neu5Ac(a2-8)Neu5Ac(a2-8)Neu5Ac(a2-3)[GalNAc(b1-4)]Gal(b1-4)Glc", "method_in_brief": "as §1"}},
  "note": "This is one part of the list.",
  "data": [
    {"binder": "B1", "values": [
      {"measurement": "glycan array binding signal (z-score)", "setting": "[1]", "result": 0.626},
      {"measurement": "glycan array binding signal (z-score)", "setting": "[2]", "result": 0.977},
      {"measurement": "glycan array binding signal (z-score)", "setting": "[3]", "result": -0.195},
      {"measurement": "glycan array binding signal (z-score)", "setting": "[4]", "result": -0.073},
      {"measurement": "glycan array binding signal (z-score)", "setting": "[5]", "result": -0.192},
      {"measurement": "glycan array binding signal (z-score)", "setting": "[6]", "result": -0.195},
      {"measurement": "glycan array binding signal (z-score)", "setting": "[7]", "result": -0.304},
      {"measurement": "glycan array binding signal (z-score)", "setting": "[8]", "result": -0.286},
      {"measurement": "glycan array binding signal (z-score)", "setting": "[9]", "result": -0.158},
      {"measurement": "glycan array binding signal (z-score)", "setting": "[10]", "result": 0.889},
      {"measurement": "glycan array binding signal (z-score)", "setting": "[11]", "result": -0.105},
      {"measurement": "glycan array binding signal (z-score)", "setting": "[12]", "result": -0.195},
      {"measurement": "glycan array binding signal (z-score)", "setting": "[13]", "result": -0.195},
      {"measurement": "glycan array binding signal (z-score)", "setting": "[14]", "result": -0.195},
      {"measurement": "glycan array binding signal (z-score)", "setting": "[15]", "result": -0.195},
      {"measurement": "glycan array binding signal (z-score)", "setting": "[16]", "result": -0.195},
      {"measurement": "glycan array binding signal (z-score)", "setting": "[17]", "result": -0.184},
      {"measurement": "glycan array binding signal (z-score)", "setting": "[18]", "result": -0.205},
      {"measurement": "glycan array binding signal (z-score)", "setting": "[19]", "result": -0.311},
      {"measurement": "glycan array binding signal (z-score)", "setting": "[20]", "result": -0.195},
      {"measurement": "glycan array binding signal (z-score)", "setting": "[21]", "result": -0.195},
      {"measurement": "glycan array binding signal (z-score)", "setting": "[22]", "result": -0.195},
      {"measurement": "glycan array binding signal (z-score)", "setting": "[23]", "result": -0.234},
      {"measurement": "glycan array binding signal (z-score)", "setting": "[24]", "result": -0.123},
      {"measurement": "glycan array binding signal (z-score)", "setting": "[25]", "result": -0.195},
      {"measurement": "glycan array binding signal (z-score)", "setting": "[26]", "result": -0.155},
      {"measurement": "glycan array binding signal (z-score)", "setting": "[27]", "result": -0.195},
      {"measurement": "glycan array binding signal (z-score)", "setting": "[28]", "result": -0.283},
      {"measurement": "glycan array binding signal (z-score)", "setting": "[29]", "result": -0.238},
      {"measurement": "glycan array binding signal (z-score)", "setting": "[30]", "result": -0.189},
      {"measurement": "glycan array binding signal (z-score)", "setting": "[31]", "result": -0.272},
      {"measurement": "glycan array binding signal (z-score)", "setting": "[32]", "result": 1.45},
      {"measurement": "glycan array binding signal (z-score)", "setting": "[33]", "result": -0.266},
      {"measurement": "glycan array binding signal (z-score)", "setting": "[34]", "result": -0.195},
      {"measurement": "glycan array binding signal (z-score)", "setting": "[35]", "result": -0.195},
      {"measurement": "glycan array binding signal (z-score)", "setting": "[36]", "result": -0.193},
      {"measurement": "glycan array binding signal (z-score)", "setting": "[37]", "result": -0.219},
      {"measurement": "glycan array binding signal (z-score)", "setting": "[38]", "result": 0.036},
      {"measurement": "glycan array binding signal (z-score)", "setting": "[39]", "result": -0.109},
      {"measurement": "glycan array binding signal (z-score)", "setting": "[40]", "result": -0.195},
      {"measurement": "glycan array binding signal (z-score)", "setting": "[41]", "result": -0.195},
      {"measurement": "glycan array binding signal (z-score)", "setting": "[42]", "result": -0.117}
    ]}
  ]
}
